Reference: a collection of fitness landscapes (doi:10.1016/j.celrep.2020.107928)
The full ranking holds about 81,000 sequences; the median of “one-hybrid fitness for binding parS DNA” is about -0.17, and the highest 2% start at about 0.51. The list shows a part of the results.

B1: Caulobacter ParB omega fusion; a variant is named by its letters at X, in order, B8GW30 (parent)
chain: MESVVVGEPGMSEGRRGLGRGLSALLGEVDAAPAQAPGEQLGGSREAPIEILQRNPDQPRRTFREEDLEDLSNSIREKGVLQPILVRPSPDTAGEYQIVAGERAWRAAQRAGLKTVPIMVRELDDLAVLEIGIIENVQRADLNVLEEALSYKVLMEKFERTQENIAQTIGKSXSHVANXMRLLXLPDEVQSYLVSGELTAXHARAIAAAADPVALAKQIIEGGLSVRETEALARKAPNLSAGKSKGGRPPRVKDTDTQALESDLSSVLGLDVSIDHRGSTGTLTITYATLEQLDDLCNRLTRGI

Variants of: B1
Assay: one-hybrid fitness for binding parS DNA (scaled: cognate 1, non-cognate 0); higher = stronger binding
Details: with parS DNA site
How it was run: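 Bacterial one-hybrid selection in E. coli USO rpoZ- hisB- pyrF- with a HIS3 reporter carrying the site 19 bp from the promoter, screening Caulobacter ParB libraries with four specificity codons randomised (NNS). Cells grew 48 hours at 37°C on M9-minus-histidine plus 0.1 mM IPTG and 5 mM 3-AT. Plasmids before and after selection were Illumina-sequenced, three replicate libraries pooled, and variants under 10 reads dropped. Fitness is the log change in variant-to-wild-type read ratio, rescaled to cognate 1, non-cognate 0.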

Row | Variant | one-hybrid fitness for binding parS DNA
1 | ADCC | ≤ 0.2
2 | RMFA | 0.61
3 | NNMC | ≤ 0.2
4 | VWDV | ≤ 0.2
5 | RVKM | 0.393
6 | LIRS | ≤ 0.2
7 | SKCG | ≤ 0.2
8 | VACG | ≤ 0.2
9 | LYFT | ≤ 0.2
10 | VHHE | ≤ 0.2
11 | TKVQ | ≤ 0.2
12 | YRFA | ≤ 0.2
13 | FLPK | ≤ 0.2
14 | AWMV | ≤ 0.2
15 | HCAR | ≤ 0.2
16 | TEPW | ≤ 0.2
17 | RDQL | ≤ 0.2
18 | HGAC | ≤ 0.2
19 | WSWS | ≤ 0.2
20 | VQPV | ≤ 0.2
21 | HGSC | ≤ 0.2
22 | TSYE | ≤ 0.2
23 | ECTG | ≤ 0.2
24 | EPRC | ≤ 0.2

Row | Variant | one-hybrid fitness for binding parS DNA
25 | RVLV | ≤ 0.2
26 | IYTR | ≤ 0.2
27 | EETR | ≤ 0.2
28 | ASEC | ≤ 0.2
29 | YTGK | ≤ 0.2
30 | SVDC | ≤ 0.2
31 | GTGA | ≤ 0.2
32 | RKPY | ≤ 0.2
33 | PRGM | ≤ 0.2
34 | LNSL | ≤ 0.2
35 | NTMP | ≤ 0.2
36 | GTWG | ≤ 0.2
37 | SIAV | ≤ 0.2
38 | SGWS | ≤ 0.2
39 | AYTH | ≤ 0.2
40 | AVSW | ≤ 0.2
41 | PVAL | ≤ 0.2
42 | MDGR | ≤ 0.2
43 | TLCT | ≤ 0.2
44 | KSAT | ≤ 0.2
45 | NQGG | ≤ 0.2
46 | HGMV | ≤ 0.2
47 | LRHW | ≤ 0.2
48 | NAAR | ≤ 0.2

Row | Variant | one-hybrid fitness for binding parS DNA
49 | EDWR | ≤ 0.2
50 | PGVY | ≤ 0.2
51 | ERPE | ≤ 0.2
52 | LLFL | ≤ 0.2
53 | NKCS | ≤ 0.2
54 | NDKT | ≤ 0.2
55 | PRGD | ≤ 0.2
56 | VMNG | ≤ 0.2
57 | NHKR | ≤ 0.2
58 | RQHY | 0.461
59 | HWFT | ≤ 0.2
60 | FRCC | ≤ 0.2
61 | LPCR | ≤ 0.2
62 | LLLM | ≤ 0.2
63 | SVEA | ≤ 0.2
64 | RLYD | ≤ 0.2
65 | YNGC | ≤ 0.2
66 | VIGY | ≤ 0.2
67 | TKKY | ≤ 0.2
68 | NTNG | ≤ 0.2
69 | SEAG | ≤ 0.2
70 | TNLA | ≤ 0.2
71 | KMVQ | ≤ 0.2
72 | TAHI | ≤ 0.2

Row | Variant | one-hybrid fitness for binding parS DNA
73 | QPEG | ≤ 0.2
74 | AKYM | ≤ 0.2
75 | PSDN | ≤ 0.2
76 | SWNR | ≤ 0.2
77 | KNGV | ≤ 0.2
78 | TVTE | ≤ 0.2
79 | RVDV | ≤ 0.2
80 | ALLF | ≤ 0.2
81 | AVHI | ≤ 0.2
82 | GKRS | ≤ 0.2
83 | YQSC | ≤ 0.2
84 | IPMC | ≤ 0.2
85 | LSCA | ≤ 0.2
86 | WSMT | ≤ 0.2
87 | RMDE | ≤ 0.2
88 | WNYS | ≤ 0.2
89 | CTPK | ≤ 0.2
90 | VVHM | ≤ 0.2
91 | AFQF | ≤ 0.2
92 | DPDV | ≤ 0.2
93 | AAIF | ≤ 0.2
94 | TYKM | ≤ 0.2
95 | YASG | ≤ 0.2
96 | YAEV | ≤ 0.2

Row | Variant | one-hybrid fitness for binding parS DNA
97 | APSW | ≤ 0.2
98 | HWKR | ≤ 0.2
99 | KQPV | ≤ 0.2
100 | NGAE | ≤ 0.2
101 | LSHK | ≤ 0.2
102 | LPHL | ≤ 0.2
103 | NAGT | ≤ 0.2
104 | VVMS | ≤ 0.2
105 | MAIS | ≤ 0.2
106 | HETS | ≤ 0.2
107 | VFKN | ≤ 0.2
108 | EQLT | ≤ 0.2
109 | LVQG | ≤ 0.2
110 | HSLC | ≤ 0.2
111 | SWAK | ≤ 0.2
112 | PQYA | ≤ 0.2
113 | RCPD | ≤ 0.2
114 | APFS | ≤ 0.2
115 | FFKG | ≤ 0.2
116 | MHYT | ≤ 0.2
117 | VNMP | ≤ 0.2
118 | PPDL | ≤ 0.2
119 | DMPS | ≤ 0.2
120 | SLKK | ≤ 0.2

Row | Variant | one-hybrid fitness for binding parS DNA
121 | EFEE | ≤ 0.2
122 | CAFN | ≤ 0.2
123 | KLHF | ≤ 0.2
124 | VAAR | ≤ 0.2
125 | AAMV | ≤ 0.2
126 | GVIY | ≤ 0.2
127 | LEVV | ≤ 0.2
128 | NDDT | ≤ 0.2
129 | RDSG | ≤ 0.2
130 | YGRN | ≤ 0.2
131 | WGCG | ≤ 0.2
132 | LYDV | ≤ 0.2
133 | PHAQ | ≤ 0.2
134 | HVPA | ≤ 0.2
135 | DSCG | ≤ 0.2
136 | AMPF | ≤ 0.2
137 | SFMS | ≤ 0.2
138 | WEST | ≤ 0.2
139 | SRLK | ≤ 0.2
140 | GLVT | ≤ 0.2
141 | MAPY | ≤ 0.2
142 | TAYV | ≤ 0.2
143 | HPKK | ≤ 0.2
144 | LEYL | ≤ 0.2

Row | Variant | one-hybrid fitness for binding parS DNA
145 | QQHW | ≤ 0.2
146 | KLWC | ≤ 0.2
147 | FTYR | ≤ 0.2
148 | HDKL | ≤ 0.2
149 | SKGC | ≤ 0.2
150 | HTSS | ≤ 0.2
151 | PHCR | ≤ 0.2
152 | WREG | ≤ 0.2
153 | VFYG | ≤ 0.2
154 | WCLT | ≤ 0.2
155 | WRSR | ≤ 0.2
156 | MECW | ≤ 0.2
157 | WKHC | ≤ 0.2
158 | TCSI | ≤ 0.2
159 | AEGK | ≤ 0.2
160 | QIQY | ≤ 0.2
161 | QQVS | ≤ 0.2
162 | RSVF | ≤ 0.2
163 | EERR | ≤ 0.2
164 | IFKR | ≤ 0.2
165 | CSMV | ≤ 0.2
166 | RTEN | 0.349
167 | ANDC | ≤ 0.2
168 | SEPG | ≤ 0.2

Row | Variant | one-hybrid fitness for binding parS DNA
169 | SDTS | ≤ 0.2
170 | MEMT | ≤ 0.2
171 | WRNT | ≤ 0.2
172 | QDHG | ≤ 0.2
173 | CHSD | ≤ 0.2
174 | VWSG | ≤ 0.2
175 | FALC | ≤ 0.2
176 | WPTG | ≤ 0.2
177 | QAFC | ≤ 0.2
178 | PHTY | ≤ 0.2
179 | RDEG | ≤ 0.2
180 | TEFW | ≤ 0.2
181 | IGCS | ≤ 0.2
182 | YVQR | ≤ 0.2
183 | HGCL | ≤ 0.2
184 | WLSE | ≤ 0.2
185 | VRTG | ≤ 0.2
186 | GWGP | 0.281
187 | WHLV | ≤ 0.2
188 | LLEM | ≤ 0.2
189 | DFAL | ≤ 0.2
190 | GYPP | ≤ 0.2
191 | CPRI | ≤ 0.2
192 | VRAM | ≤ 0.2

Row | Variant | one-hybrid fitness for binding parS DNA
193 | TAFE | ≤ 0.2
194 | AFDN | ≤ 0.2
195 | DMNT | ≤ 0.2
196 | TQRV | ≤ 0.2
197 | RGNT | 0.609
198 | VKKG | ≤ 0.2
199 | LCLF | ≤ 0.2
200 | DTYR | ≤ 0.2
201 | ASSI | ≤ 0.2
202 | MPRW | ≤ 0.2
203 | HQSS | ≤ 0.2
204 | IVPL | ≤ 0.2
205 | YLTQ | ≤ 0.2
206 | IGLD | ≤ 0.2
207 | HGSA | ≤ 0.2
208 | VRYR | ≤ 0.2
209 | EFRC | ≤ 0.2
210 | DHCG | ≤ 0.2
211 | KVSL | ≤ 0.2
212 | ALES | ≤ 0.2
213 | WWAD | 0.24
214 | GNSK | ≤ 0.2
215 | GASS | ≤ 0.2
216 | TSDY | ≤ 0.2

Row | Variant | one-hybrid fitness for binding parS DNA
217 | NMVM | ≤ 0.2
218 | LYHR | ≤ 0.2
219 | IVST | ≤ 0.2
220 | DITE | ≤ 0.2
221 | PSIA | ≤ 0.2
222 | CKGF | ≤ 0.2
223 | RQWW | ≤ 0.2
224 | LRQM | ≤ 0.2
225 | GTNY | ≤ 0.2
226 | RNST | 0.746
227 | QYKY | ≤ 0.2
228 | NHVR | ≤ 0.2
229 | RNHP | ≤ 0.2
230 | QWCS | ≤ 0.2
231 | HRCG | 0.246
232 | QFYK | ≤ 0.2
233 | MSPN | ≤ 0.2
234 | RRPH | ≤ 0.2
235 | KECG | ≤ 0.2
236 | QCIR | ≤ 0.2
237 | MDPV | ≤ 0.2
238 | SART | ≤ 0.2
239 | CTDC | ≤ 0.2
240 | VKKI | ≤ 0.2

Row | Variant | one-hybrid fitness for binding parS DNA
241 | TYVT | ≤ 0.2
242 | MNFI | ≤ 0.2
243 | GYLM | ≤ 0.2
244 | STMF | ≤ 0.2
245 | LWRF | ≤ 0.2
246 | MWES | ≤ 0.2
247 | CLLS | ≤ 0.2
248 | CKQA | ≤ 0.2
249 | KSSS | ≤ 0.2
250 | MQGS | ≤ 0.2
251 | KSYM | ≤ 0.2
252 | FIPR | ≤ 0.2
253 | TSGN | ≤ 0.2
254 | KQMC | ≤ 0.2
255 | CLWP | ≤ 0.2
256 | LCCT | ≤ 0.2
257 | CSVD | ≤ 0.2
258 | RTNH | ≤ 0.2
259 | QYNK | ≤ 0.2
260 | CSEF | ≤ 0.2
261 | ASHA | ≤ 0.2
262 | SISW | ≤ 0.2
263 | PHLF | ≤ 0.2
264 | QKYT | ≤ 0.2

Row | Variant | one-hybrid fitness for binding parS DNA
265 | LLNL | ≤ 0.2
266 | KLWF | ≤ 0.2
267 | PVMS | ≤ 0.2
268 | ACGC | ≤ 0.2
269 | MACS | ≤ 0.2
270 | IKGG | ≤ 0.2
271 | RWWY | ≤ 0.2
272 | ARQM | ≤ 0.2
273 | SNKV | ≤ 0.2
274 | RQDN | 0.431
275 | MCSR | ≤ 0.2
276 | RHVQ | ≤ 0.2
277 | QDQK | ≤ 0.2
278 | KYLY | ≤ 0.2
279 | EDAL | ≤ 0.2
280 | TAYG | ≤ 0.2
281 | SAFI | ≤ 0.2
282 | AVHV | ≤ 0.2
283 | HKNQ | ≤ 0.2
284 | INEG | ≤ 0.2
285 | WSSS | ≤ 0.2
286 | WLPR | ≤ 0.2
287 | FKGS | ≤ 0.2
288 | IYTG | ≤ 0.2

Row | Variant | one-hybrid fitness for binding parS DNA
289 | RTLG | 1.02
290 | KDRV | ≤ 0.2
291 | PYAG | ≤ 0.2
292 | TKKV | ≤ 0.2
293 | MDRH | ≤ 0.2
294 | KRKF | ≤ 0.2
295 | LTWI | ≤ 0.2
296 | QVNC | ≤ 0.2
297 | PSPG | ≤ 0.2
298 | DHAG | ≤ 0.2
299 | MNAT | ≤ 0.2
300 | HPRL | ≤ 0.2
301 | RNKQ | ≤ 0.2
302 | PCKL | ≤ 0.2
303 | QASY | ≤ 0.2
304 | QHAR | ≤ 0.2
305 | LMSD | ≤ 0.2
306 | PQCC | ≤ 0.2
